Measured values taken from the supplement of paper PMC8728848.
The other results are listed elsewhere or left out.

Legend:
Experiment in all cases: glycan array binding signal (z-score within array); higher = stronger binding
Details in all cases: glycan notation: IUPAC condensed, linker removed
[1] = target: GlcNAc(b1-3)Gal(b1-4)GlcNAc(b1-3)Gal(b1-4)GlcNAc(b1-3)Gal(b1-4)GlcNAc(b1-3)Gal(b1-4)GlcNAc(b1-2)Man(a1-3)[GlcNAc(b1-3)Gal(b1-4)GlcNAc(b1-3)Gal(b1-4)GlcNAc(b1-3)Gal(b1-4)GlcNAc(b1-3)Gal(b1-4)GlcNAc(b1-2)Man(a1-6)]Man(b1-4)GlcNAc(b1-4)GlcNAc
In short: (§1)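 From the Consortium for Functional Glycomics database, 3228 arrays were curated, keeping only those whose protein sequence was available. Binding is given as a within-array Z-score averaged across arrays sharing a protein sequence and across linkers. Negative Z-scores can be read as non-binding.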

[2] = target: GlcNAc(b1-3)Gal(b1-4)GlcNAc(b1-3)Gal(b1-4)GlcNAc(b1-3)Gal(b1-4)GlcNAc(b1-3)Gal(b1-4)GlcNAc(b1-2)Man(a1-3)[GlcNAc(b1-3)Gal(b1-4)GlcNAc(b1-3)Gal(b1-4)GlcNAc(b1-3)Gal(b1-4)GlcNAc(b1-3)Gal(b1-4)GlcNAc(b1-2)Man(a1-6)]Man(b1-4)GlcNAc(b1-4)[Fuc(a1-6)]GlcNAc
In short: as §1

[3] = target: GlcNAc(b1-3)Gal(b1-4)GlcNAc(b1-3)Gal(b1-4)GlcNAc(b1-3)Gal(b1-4)GlcNAc(b1-3)Gal(b1-4)GlcNAc(b1-2)[GlcNAc(b1-3)Gal(b1-4)GlcNAc(b1-3)Gal(b1-4)GlcNAc(b1-3)Gal(b1-4)GlcNAc(b1-3)Gal(b1-4)GlcNAc(b1-6)]Man(a1-6)[GlcNAc(b1-3)Gal(b1-4)GlcNAc(b1-3)Gal(b1-4)GlcNAc(b1-3)Gal(b1-4)GlcNAc(b1-3)Gal(b1-4)GlcNAc(b1-2)Man(a1-3)]Man(b1-4)GlcNAc(b1-4)[Fuc(a1-6)]GlcNAc
In short: as §1

[4] = target: GlcNAc(b1-3)Gal(b1-4)GlcNAc(b1-3)Gal(b1-4)GlcNAc(b1-3)GalNAc
In short: as §1

[5] = target: GlcNAc(b1-3)Gal(b1-4)GlcNAc(b1-3)GalNAc
In short: as §1

[6] = target: GlcNAc(b1-3)Gal(b1-4)GlcNAc(b1-3)[GlcNAc(b1-3)Gal(b1-4)GlcNAc(b1-3)]GalNAc
In short: as §1

[7] = target: GlcNAc(b1-3)Gal(b1-4)GlcNAc(b1-6)[Gal(b1-3)]GalNAc
In short: as §1

[8] = target: GlcNAc(b1-3)Gal(b1-4)GlcNAc(b1-6)[GlcNAc(b1-3)Gal(b1-3)]GalNAc
In short: as §1

[9] = target: GlcNAc(b1-3)Gal(b1-4)GlcNAc(b1-6)[GlcNAc(b1-3)]Gal(b1-4)GlcNAc
In short: as §1

GlcNAc(b1-3)GalNAc = target: GlcNAc(b1-3)GalNAc
In short: as §1

GlcNAc(b1-3)Man = target: GlcNAc(b1-3)Man
In short: as §1

[10] = target: GlcNAc(b1-3)[GlcNAc(b1-4)][GlcNAc(b1-6)]GlcNAc
In short: as §1

[11] = target: GlcNAc(b1-3)[GlcNAc(b1-6)]Gal(b1-4)GlcNAc
In short: as §1

[12] = target: GlcNAc(b1-3)[GlcNAc(b1-6)]GalNAc
In short: as §1

[13] = target: GlcNAc(b1-3)[GlcNAc(b1-6)]GlcNAc
In short: as §1

[14] = target: GlcNAc(b1-4)Gal(b1-4)GlcNAc
In short: as §1

GlcNAc(b1-4)GlcNAc = target: GlcNAc(b1-4)GlcNAc
In short: as §1

[15] = target: GlcNAc(b1-4)GlcNAc(b1-4)GlcNAc
In short: as §1

[16] = target: GlcNAc(b1-4)GlcNAc(b1-4)GlcNAc(b1-4)GlcNAc(b1-4)GlcNAc
In short: as §1

[17] = target: GlcNAc(b1-4)GlcNAc(b1-4)GlcNAc(b1-4)GlcNAc(b1-4)GlcNAc(b1-4)GlcNAc
In short: as §1

[18] = target: GlcNAc(b1-4)[GlcNAc(b1-6)]GalNAc
In short: as §1

[19] = target: GlcNAc(b1-6)Gal(b1-4)GlcNAc
In short: as §1

GlcNAc(b1-6)GalNAc = target: GlcNAc(b1-6)GalNAc
In short: as §1

[20] = target: GlcNAc6S(b1-3)Gal(b1-4)GlcNAc
In short: as §1

Kdn(a2-3)Gal(b1-3)GalNAc = target: Kdn(a2-3)Gal(b1-3)GalNAc
In short: as §1

Kdn(a2-3)Gal(b1-3)GlcNAc = target: Kdn(a2-3)Gal(b1-3)GlcNAc
In short: as §1

Kdn(a2-3)Gal(b1-4)Glc = target: Kdn(a2-3)Gal(b1-4)Glc
In short: as §1

Kdn(a2-3)Gal(b1-4)GlcNAc = target: Kdn(a2-3)Gal(b1-4)GlcNAc
In short: as §1

[21] = target: Kdn(a2-3)Gal(b1-4)[Fuc(a1-3)]GlcNAc
In short: as §1

Kdn(a2-6)Gal(b1-4)GlcNAc = target: Kdn(a2-6)Gal(b1-4)GlcNAc
In short: as §1

[22] = target: Man(a1-2)Man(a1-2)Man(a1-3)Man
In short: as §1

[23] = target: Man(a1-2)Man(a1-2)Man(a1-3)[Man(a1-2)Man(a1-3)[Man(a1-2)Man(a1-6)]Man(a1-6)]Man(b1-4)GlcNAc(b1-4)GlcNAc
In short: as §1

[24] = target: Man(a1-2)Man(a1-2)Man(a1-3)[Man(a1-2)Man(a1-6)[Man(a1-3)]Man(a1-6)]Man(b1-4)GlcNAc(b1-4)GlcNAc
In short: as §1

[25] = target: Man(a1-2)Man(a1-2)Man(a1-6)[Man(a1-3)]Man
In short: as §1

Man(a1-2)Man(a1-3)Man = target: Man(a1-2)Man(a1-3)Man
In short: as §1

[26] = target: Man(a1-2)Man(a1-3)[Man(a1-2)Man(a1-6)]Man
In short: as §1

[27] = target: Man(a1-2)Man(a1-3)[Man(a1-2)Man(a1-6)]Man(a1-6)[Man(a1-2)Man(a1-2)Man(a1-3)]Man
In short: as §1

[28] = target: Man(a1-2)Man(a1-3)[Man(a1-2)Man(a1-6)]Man(a1-6)[Man(a1-2)Man(a1-2)Man(a1-3)]Man(b1-4)GlcNAc(b1-4)GlcNAc
In short: as §1

B1: Epa12 (Candida glabrata) (protein)
chain: MGSSHHHHHHSSGLVPRGSHMLEPDNSLQIFDSFLSNPSKYPLGCSPKITNPKKGLSMELYSYPYRKKGSHPCWDPAYLDPNFPRVGYKKNKLIARVDGVSGDINFNFHPKRQCTPIADYLPPNFNYNEPITTTNFTMLLYGYFKPKVTGLHTFDISADDLLFMNFGAGNAFDCCRRDSTADTFGNYVAWAIWGRRIVRNKLTVRLDKGIYYPLRLFFNNRDYYGQMRLTFKTEHGSERITDFSDYFFSVDDTSEGCPGLITYESECADVKSSTVLETDYITIQAEKE
- glycan array binding signal (z-score) [1]: -0.337
- glycan array binding signal (z-score) [2]: -0.392
- glycan array binding signal (z-score) [3]: -0.206
- glycan array binding signal (z-score) [4]: -0.369
- glycan array binding signal (z-score) [5]: -0.307
- glycan array binding signal (z-score) [6]: -0.348
- glycan array binding signal (z-score) [7]: -0.32
- glycan array binding signal (z-score) [8]: -0.375
- glycan array binding signal (z-score) [9]: -0.392
- glycan array binding signal (z-score) (GlcNAc(b1-3)GalNAc): -0.357
- glycan array binding signal (z-score) (GlcNAc(b1-3)Man): -0.385
- glycan array binding signal (z-score) [10]: -0.292
- glycan array binding signal (z-score) [11]: -0.306
- glycan array binding signal (z-score) [12]: -0.298
- glycan array binding signal (z-score) [13]: 1.02
- glycan array binding signal (z-score) [14]: -0.157
- glycan array binding signal (z-score) (GlcNAc(b1-4)GlcNAc): -0.359
- glycan array binding signal (z-score) [15]: -0.366
- glycan array binding signal (z-score) [16]: -0.032
- glycan array binding signal (z-score) [17]: -0.325
- glycan array binding signal (z-score) [18]: -0.317
- glycan array binding signal (z-score) [19]: 0.708
- glycan array binding signal (z-score) (GlcNAc(b1-6)GalNAc): -0.382
- glycan array binding signal (z-score) [20]: 0.486
- glycan array binding signal (z-score) (Kdn(a2-3)Gal(b1-3)GalNAc): -0.342
- glycan array binding signal (z-score) (Kdn(a2-3)Gal(b1-3)GlcNAc): -0.163
- glycan array binding signal (z-score) (Kdn(a2-3)Gal(b1-4)Glc): -0.281
- glycan array binding signal (z-score) (Kdn(a2-3)Gal(b1-4)GlcNAc): -0.311
- glycan array binding signal (z-score) [21]: -0.182
- glycan array binding signal (z-score) (Kdn(a2-6)Gal(b1-4)GlcNAc): -0.005
- glycan array binding signal (z-score) [22]: -0.095
- glycan array binding signal (z-score) [23]: 0.014
- glycan array binding signal (z-score) [24]: 0.647
- glycan array binding signal (z-score) [25]: -0.268
- glycan array binding signal (z-score) (Man(a1-2)Man(a1-3)Man): -0.348
- glycan array binding signal (z-score) [26]: -0.36
- glycan array binding signal (z-score) [27]: -0.304
- glycan array binding signal (z-score) [28]: -0.277
